Some of the results follow. The energies were worked out here from pooled read counts, against the library average; single values are noisy.
target: T1, Pho4 (S. cerevisiae) (UniProt P07270); assay: relative binding free energy (BET-seq); higher = weaker binding; conditions: reference: library average
T1 sequence: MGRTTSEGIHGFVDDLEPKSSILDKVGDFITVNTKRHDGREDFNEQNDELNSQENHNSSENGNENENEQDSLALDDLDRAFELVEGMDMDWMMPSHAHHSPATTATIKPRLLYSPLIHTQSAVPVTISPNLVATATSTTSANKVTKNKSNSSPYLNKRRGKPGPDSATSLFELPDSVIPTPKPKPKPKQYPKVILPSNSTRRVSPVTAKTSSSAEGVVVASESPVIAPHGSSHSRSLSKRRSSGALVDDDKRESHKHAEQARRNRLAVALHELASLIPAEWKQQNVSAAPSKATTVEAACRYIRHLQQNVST

Sequence	relative binding free energy
GGTTGCACGTGAGTCG	0.33 kcal/mol
AGTGGCACGTGAGGCC	0.01 kcal/mol
TATGTCACGTGATCAT	0.11 kcal/mol
TGCGGCACGTGGGCAT	-0.22 kcal/mol
AGATGCACGTGCTGGG	-0.14 kcal/mol
GTTCACACGTGTTTCG	0.24 kcal/mol
TGGGGCACGTGTAAGT	-0.03 kcal/mol
TATGGCACGTGGATCG	-0.11 kcal/mol
TTATCCACGTGAGGGG	0.19 kcal/mol
GGGGCCACGTGGCGTG	-0.13 kcal/mol
ATTATCACGTGAGAAT	0.28 kcal/mol
ATCGGCACGTGGGAGA	-0.13 kcal/mol
ATGAGCACGTGGTATG	-0.15 kcal/mol
TTACTCACGTGCGTGT	0.13 kcal/mol
AGGAGCACGTGCGAGG	-0.22 kcal/mol
TGTTACACGTGCATAG	0.13 kcal/mol
AGGTCCACGTGATTTA	0.22 kcal/mol
AGTAACACGTGGGGGA	-0.12 kcal/mol
CTGGACACGTGTGGGA	0.13 kcal/mol
GGTGTCACGTGGACTG	0.04 kcal/mol
GTTGGCACGTGGCCTA	-0.12 kcal/mol
GGCTACACGTGGGATG	0.15 kcal/mol
GGTCTCACGTGGGGAG	0.1 kcal/mol

Sequence	relative binding free energy
GTGAACACGTGGACGG	0.06 kcal/mol
AGCTTCACGTGTATTA	0.18 kcal/mol
GTTGACACGTGAAGTG	0.17 kcal/mol
TAACACACGTGTGGTG	0.05 kcal/mol
TGTGGCACGTGGTGCC	-0.19 kcal/mol
GTAAGCACGTGTCTTA	0.04 kcal/mol
GCAGTCACGTGTGGAG	0.13 kcal/mol
ATCGACACGTGATTGT	0.29 kcal/mol
TTGAACACGTGTTTCA	0.1 kcal/mol
AGGCGCACGTGTGGGT	-0.14 kcal/mol
TCTAGCACGTGGAAGG	0.08 kcal/mol
TTGTTCACGTGGTAAG	0.26 kcal/mol
TATATCACGTGTTGTC	0.12 kcal/mol
AAGGCCACGTGATTGT	-0.08 kcal/mol
TAGATCACGTGATGGT	0.32 kcal/mol
TGCATCACGTGTTGTG	-0.04 kcal/mol
AGTGGCACGTGTACGC	0.04 kcal/mol
TTGTTCACGTGTGATC	0.37 kcal/mol
TTTAACACGTGCGTGC	0.01 kcal/mol
ATCTACACGTGGGTTT	0.03 kcal/mol
AGTGACACGTGAATCG	0.35 kcal/mol
CGGGCCACGTGGTTTG	-0.22 kcal/mol
TTTTGCACGTGGTCTG	-0.01 kcal/mol

Sequence	relative binding free energy
TTGTGCACGTGGGTGT	-0.12 kcal/mol
CATGGCACGTGCGTGT	-0.28 kcal/mol
GTACGCACGTGTTGGT	-0.05 kcal/mol
CGAGGCACGTGGTGTA	-0.16 kcal/mol
GGAATCACGTGGCTGG	0.22 kcal/mol
TGAGACACGTGTGTGA	-0.06 kcal/mol
TGGGTCACGTGATGAG	0.25 kcal/mol
TGATGCACGTGATTGG	0.09 kcal/mol
CTTAGCACGTGTTTTG	-0.14 kcal/mol
GGCTACACGTGGTTGT	0.2 kcal/mol
ATGGTCACGTGGTTGA	0.11 kcal/mol
TGAGGCACGTGGTCCG	-0.22 kcal/mol
GGTTGCACGTGATTAA	0.01 kcal/mol
AGTGTCACGTGGACGG	0.16 kcal/mol
TTCAGCACGTGGTGTT	-0.13 kcal/mol
TTCAGCACGTGGTGGG	-0.14 kcal/mol
ATGATCACGTGTTAGG	0.1 kcal/mol
TTAGTCACGTGGCATT	0.05 kcal/mol
ATTCGCACGTGCGGGG	-0.11 kcal/mol
TATAGCACGTGTAAGT	-0.03 kcal/mol
GTATCCACGTGTTAGG	0.17 kcal/mol
GTGTTCACGTGTAGTT	0.22 kcal/mol
AGTCGCACGTGGGAGG	-0.19 kcal/mol

Sequence	relative binding free energy
AAGGACACGTGGATAG	0.08 kcal/mol
TCGGACACGTGAGGGC	0.3 kcal/mol
ATGGACACGTGGTGAC	0.04 kcal/mol
CGTAGCACGTGTGTAG	-0.06 kcal/mol
TTGTTCACGTGCTTGT	0.18 kcal/mol
TTGGTCACGTGCGGAT	0.15 kcal/mol
GTACTCACGTGGTTAG	0.34 kcal/mol
GTAGCCACGTGAGGTA	0.26 kcal/mol
TAATTCACGTGCTGGA	0.28 kcal/mol
TTGATCACGTGTTCGA	0.12 kcal/mol
TGAGGCACGTGAAGAA	0.19 kcal/mol
AGCGGCACGTGGTAAG	-0.09 kcal/mol
AGACCCACGTGGGGTG	-0.21 kcal/mol
GAATGCACGTGAGTTA	0.28 kcal/mol
TTGGTCACGTGTGAGT	0.23 kcal/mol
ATGTTCACGTGTGAGG	0.31 kcal/mol
TTTAACACGTGAGGGC	0.19 kcal/mol
TTAAACACGTGCTTGG	-0.05 kcal/mol
CCGGGCACGTGTAGGG	-0.14 kcal/mol
GGTTGCACGTGGAGGC	0.09 kcal/mol
TACGACACGTGGTGTG	-0.1 kcal/mol
GGGCGCACGTGATGAA	0.22 kcal/mol
GTGCACACGTGGTTGC	0.06 kcal/mol

Sequence	relative binding free energy
AGGGTCACGTGTCGAG	0.14 kcal/mol
TTTTACACGTGCGTAA	0.07 kcal/mol
ATGTACACGTGAGTTC	0.29 kcal/mol
CGATGCACGTGTAGCG	0.07 kcal/mol
GTGGACACGTGTTTGG	-0.03 kcal/mol
CTGGACACGTGTGATG	0.12 kcal/mol
GGGGTCACGTGACGGG	0.25 kcal/mol
AGGGTCACGTGTGATA	0.22 kcal/mol
GTTCTCACGTGCGTTG	0.2 kcal/mol
ATTCACACGTGGTTAT	0.06 kcal/mol
GTATGCACGTGAGCGG	0.16 kcal/mol
AATTGCACGTGTGGTA	0.05 kcal/mol
ATTTTCACGTGATGCA	0.25 kcal/mol
TAGGGCACGTGTCGTT	-0.12 kcal/mol
GTCGGCACGTGATAGG	-0.04 kcal/mol
AGGTTCACGTGTAAAT	0.38 kcal/mol
TCTTGCACGTGGTACT	-0.03 kcal/mol
TGAGTCACGTGGTAAC	0.21 kcal/mol
TCAGGCACGTGGGAAT	0 kcal/mol
AGTGGCACGTGTAGGG	-0.07 kcal/mol
GGGGACACGTGGGAAC	0.06 kcal/mol
AGTAGCACGTGTCGGT	-0.02 kcal/mol
CAATGCACGTGGGGTC	-0.12 kcal/mol
